Lines with a small IC50 respond at low doses; where the fit passes the top or lowest dose, that dose stands as a limit. AUC, from the same fit, is the share of area under the viability curve across the 256-fold dose range; it is 1 without any effect and falls as sensitivity rises. For some assays here: A top dose marked as inferred was derived from the fitted curves, not read from the paper. For some assays here: Where an entry number is given, a second screen of the drug exists; the two often differ.
What was measured:
Assay in all cases: Viability of human cancer cell lines after 72 h of drug (GDSC screen)
[1] = compound: COc1cc(O)c2c(c1)/C=C/C[C@H](O)[C@H](O)C(=O)/C=C\C[C@H](C)OC2=O [(5Z)-7-Oxozeaenol]; conditions: top dose 10 µM; top dose inferred
Protocol: (§1)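 Human cancer cell lines in 384-well plates, medium with 10% serum, drug for 72 h over a 256-fold dose range (nine 2-fold or five 4-fold steps up to the top dose). Adherent lines were fixed and stained with the nucleic acid dye Syto60, suspension lines read with resazurin; signal relative to control wells, capped at 0 and 100%. One two-parameter sigmoid per drug and line, fitted in a mixed model over all curves with the slope shared within a line.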

[2] = compound: C=CC(=O)Nc1cc(-n2c(=O)ccc3cnc4ccc(-c5cn[nH]c5)cc4c32)ccc1C [QL-X-138]; conditions: top dose 10.24 µM; top dose inferred
Protocol: as §1

[3] = compound: COc1cc(N2CCC(O)CC2)ccc1Nc1cc(Nc2ccccc2S(=O)(=O)C(C)C)c2cc[nH]c2n1 [MPS-1-IN-1]; conditions: top dose 20 µM; top dose inferred
Protocol: as §1

[4] = compound: Nc1ccn([C@@H]2O[C@H](CO)[C@@H](O)[C@@H]2O)c(=O)n1 [Cytarabine]; conditions: top dose 2 µM
Protocol: as §1

[5] = compound: C[C@]1(c2nc3c(C(N)=O)cccc3[nH]2)CCCN1 [ABT-888]; conditions: top dose 5 µM; top dose inferred
Protocol: as §1

[6] = compound: O=c1cc(-c2cccc3c2Sc2ccccc2S3)oc(N2CCOCC2)c1 [KU-55933]; conditions: top dose 10 µM
Protocol: as §1

[7] = compound: COc1nc(C)cnc1NS(=O)(=O)c1cccnc1-c1ccc(-c2nnco2)cc1 [Zibotentan]; conditions: top dose 20 µM; top dose inferred
Protocol: as §1

[8] = compound: Cc1ccc(-c2c(C(=O)CCl)n(CCCO)c3ncnc(N)c23)cc1 [CMK]; conditions: top dose 4 µM; top dose inferred
Protocol: as §1

[9] = compound: C/C=C(/C)C(=O)O[C@H]1C(C)=C2[C@H]([C@@H]1OC(=O)CCCCCCC)[C@@](C)(OC(C)=O)C[C@H](OC(=O)CCC)[C@@]1(O)[C@H]2OC(=O)[C@@]1(C)O [Thapsigargin]; conditions: top dose 0.512 µM; top dose inferred
Protocol: as §1

[10] = compound: COc1cc2ncnc(-n3nc(-c4ccccn4)nc3N)c2cc1OC [CP466722]; conditions: top dose 16 µM; top dose inferred
Protocol: as §1

[11] = compound: Cc1ccc(F)c(NC(=O)Nc2ccc(-c3cccc4[nH]nc(N)c34)cc2)c1 [ABT-869]; conditions: top dose 1.024 µM; top dose inferred
Protocol: as §1

[12] = compound: CCn1c(-c2nonc2N)nc2cnc(Oc3cccc(NC(=O)c4ccc(OCCN5CCOCC5)cc4)c3)cc21 [GSK269962A]; conditions: top dose inferred
Protocol: as §1

[13] = compound: Cc1cnc(-c2cnc(NCCNc3ccc(C#N)cn3)nc2-c2ccc(Cl)cc2Cl)[nH]1 [CHIR-99021]
Protocol: as §1

[14] = top dose 2.5 µM, screen: GDSC drug entry 127
[15] = top dose 5 µM, screen: GDSC drug entry 1192
[16] = top dose 2.56 µM, screen: GDSC drug entry 154
[17] = top dose 10 µM, screen: GDSC drug entry 1241, top dose inferred

Row | Cell Line | AUC [1] | IC50 [1] [nM] | AUC [2] | IC50 [2] [µM] | AUC [3] | IC50 [3] [µM] | AUC [4] | IC50 [4] [nM] | AUC [5] | IC50 [5] [µM] | AUC [6] | IC50 [6] [µM] | AUC [7] | IC50 [7] [µM] | AUC [8] | IC50 [8] [nM] | AUC [9] | IC50 [9] [nM] | AUC [10] | IC50 [10] [µM] | AUC [11] | IC50 [11] [nM] | AUC [12, 14] | IC50 [12, 14] [nM] | AUC [12, 15] | IC50 [12, 15] [nM] | AUC [13, 16] | IC50 [13, 16] [nM] | AUC [13, 17] | IC50 [13, 17] [nM]
1 | SW962 (urogenital system, adherent) | 0.532 | 779 | 0.829 | 8.58 | 0.945 | > 20 | 0.814 | 1440 | 0.968 | > 5 | 0.928 | > 10 | 0.98 | > 20 | 0.794 | 2370 | 0.355 | 11.4 | 0.893 | > 16 | 0.978 | > 1020 | 0.86 | > 2500 | 0.754 | 2070 | 0.981 | > 2560 | 0.977 | > 10000
2 | SW982 (soft tissue, adherent) | 0.225 | 95.8 | 0.682 | 2.1 | 0.931 | > 20 | 0.223 | 18.9 | 0.969 | > 5 | 0.93 | > 10 | 0.984 | > 20 | 0.768 | 1540 | 0.195 | 3.83 | 0.668 | 2.98 | 0.985 | > 1020 |  |  | 0.536 | 393 | 0.559 | 233 | 0.808 | 5360
3 | TE-1 (oesophagus, adherent) | 0.565 | 988 | 0.884 | > 10.2 | 0.979 | > 20 | 0.974 | > 2000 | 0.982 | > 5 | 0.973 | > 10 | 0.982 | > 20 | 0.917 | > 4000 | 0.36 | 11.8 | 0.89 | > 16 | 0.978 | > 1020 | 0.971 | > 2500 | 0.911 | > 5000 | 0.981 | > 2560 | 0.934 | > 10000
4 | TE-5 (oesophagus, adherent) | 0.576 | 1040 | 0.778 | 4.8 | 0.973 | > 20 | 0.67 | 401 | 0.978 | > 5 | 0.968 | > 10 | 0.984 | > 20 | 0.966 | > 4000 | 0.779 | 243 | 0.867 | > 16 | 0.983 | > 1020 | 0.976 | > 2500 | 0.956 | > 5000 | 0.979 | > 2560 | 0.973 | > 10000
5 | TE-6 (oesophagus, adherent) | 0.985 | > 10000 | 0.856 | > 10.2 | 0.859 | > 20 | 0.873 | > 2000 | 0.986 | > 5 | 0.972 | > 10 | 0.982 | > 20 | 0.985 | > 4000 | 0.226 | 4.34 | 0.821 | 11.4 | 0.979 | > 1020 | 0.973 | > 2500 | 0.954 | > 5000 | 0.986 | > 2560 | 0.957 | > 10000
6 | TE-8 (oesophagus, adherent) | 0.43 | 396 | 0.9 | > 10.2 | 0.881 | > 20 | 0.593 | 230 | 0.985 | > 5 | 0.954 | > 10 | 0.985 | > 20 | 0.7 | 954 | 0.181 | 3.23 | 0.899 | > 16 | 0.979 | > 1020 | 0.948 | > 2500 | 0.83 | 3450 | 0.956 | > 2560 | 0.886 | > 10000
7 | TE-9 (oesophagus, adherent) | 0.769 | 3920 | 0.97 | > 10.2 | 0.987 | > 20 | 0.804 | 1050 | 0.987 | > 5 | 0.974 | > 10 | 0.987 | > 20 | 0.947 | > 4000 | 0.367 | 13.5 | 0.96 | > 16 | 0.987 | > 1020 | 0.96 | > 2500 | 0.929 | > 5000 | 0.978 | > 2560 | 0.981 | > 10000
8 | TE-11 (oesophagus, adherent) | 0.858 | 7060 | 0.972 | > 10.2 | 0.935 | > 20 | 0.966 | > 2000 | 0.978 | > 5 | 0.951 | > 10 | 0.99 | > 20 | 0.977 | > 4000 | 0.224 | 5.49 | 0.946 | > 16 | 0.986 | > 1020 |  |  | 0.863 | 3700 | 0.986 | > 2560 | 0.955 | > 10000
9 | TE-12 (oesophagus, suspension) | 0.735 | 3460 | 0.727 | 3.31 | 0.866 | > 20 | 0.956 | > 2000 | 0.981 | > 5 | 0.951 | > 10 | 0.982 | > 20 | 0.794 | 2300 | 0.301 | 7.74 | 0.67 | 3.32 | 0.968 | > 1020 | 0.95 | > 2500 | 0.942 | > 5000 | 0.968 | > 2560 | 0.971 | > 10000
10 | TE-15 (oesophagus, suspension) | 0.91 | > 10000 | 0.613 | 1.36 | 0.718 | 5.68 | 0.897 | > 2000 | 0.985 | > 5 | 0.922 | > 10 | 0.985 | > 20 | 0.808 | 2400 | 0.256 | 5.75 | 0.739 | 5.36 | 0.979 | > 1020 | 0.968 | > 2500 | 0.976 | > 5000 | 0.922 | > 2560 | 0.981 | > 10000
11 | TGBC1TKB (biliary tract, adherent) | 0.829 | 6180 | 0.926 | > 10.2 | 0.975 | > 20 | 0.899 | > 2000 | 0.989 | > 5 | 0.961 | > 10 | 0.989 | > 20 | 0.835 | 2600 | 0.195 | 3.99 | 0.983 | > 16 | 0.987 | > 1020 | 0.988 | > 2500 | 0.937 | > 5000 | 0.987 | > 2560 | 0.988 | > 10000
12 | TGW (neuroblastoma, adherent) | 0.799 | 4020 | 0.895 | 9.33 | 0.673 | 3.5 | 0.76 | 613 | 0.988 | > 5 | 0.963 | > 10 | 0.992 | > 20 | 0.837 | 2160 | 0.205 | 5.12 | 0.839 | 8.75 | 0.988 | > 1020 | 0.942 | > 2500 | 0.778 | 1730 | 0.99 | > 2560 | 0.984 | > 10000
13 | TK10 (kidney, adherent) | 0.506 | 652 | 0.715 | 2.99 | 0.842 | 18.6 | 0.844 | 1900 | 0.98 | > 5 | 0.949 | > 10 | 0.971 | > 20 | 0.763 | 1730 | 0.461 | 24.4 | 0.846 | 15.5 | 0.98 | > 1020 | 0.963 | > 2500 | 0.898 | > 5000 | 0.953 | > 2560 | 0.766 | 4430
14 | TUR (B-cell lymphoma, suspension) | 0.641 | 1480 | 0.447 | 0.464 | 0.771 | 7.08 | 0.317 | 40.2 | 0.987 | > 5 | 0.943 | > 10 | 0.983 | > 20 | 0.979 | > 4000 | 0.306 | 9.6 | 0.664 | 2.75 | 0.979 | > 1020 | 0.989 | > 2500 | 0.769 | 1750 | 0.989 | > 2560 | 0.954 | > 10000
15 | UACC-257 (melanoma, adherent) | 0.251 | 99.1 | 0.766 | 4.7 | 0.869 | > 20 | 0.843 | 1960 | 0.98 | > 5 | 0.973 | > 10 | 0.951 | > 20 | 0.975 | > 4000 | 0.656 | 96.8 | 0.843 | 15.7 | 0.981 | > 1020 | 0.897 | > 2500 | 0.862 | > 5000 | 0.979 | > 2560 | 0.976 | > 10000
16 | VA-ES-BJ (soft tissue, adherent) | 0.665 | 1850 | 0.737 | 3.19 | 0.962 | > 20 | 0.428 | 78.5 | 0.968 | > 5 | 0.963 | > 10 | 0.985 | > 20 | 0.794 | 1950 | 0.352 | 12.1 | 0.927 | > 16 | 0.984 | > 1020 | 0.98 | > 2500 | 0.909 | > 5000 | 0.983 | > 2560 | 0.502 | 634
17 | VCaP (prostate, adherent) | 0.909 | > 10000 | 0.545 | 0.855 | 0.719 | 5.38 | 0.897 | > 2000 | 0.987 | > 5 | 0.958 | > 10 | 0.987 | > 20 | 0.961 | > 4000 | 0.425 | 19.8 | 0.767 | 6.15 | 0.972 | > 1020 | 0.986 | > 2500 | 0.983 | > 5000 | 0.987 | > 2560 | 0.928 | > 10000

— the supplement of paper PMC4967469
